Laboratory results as given in PMC4468146.
These are yes or no findings as the source states them, for the method shown. Binding seen in cells or lysates may run through a third protein. Some entries that bind do so weakly or less than the wild type. Sequences can lack the tags named with a protein.

Amino acid sequences for entries named in this document (tags omitted). Residues count along the entry.
UniProt Q03135: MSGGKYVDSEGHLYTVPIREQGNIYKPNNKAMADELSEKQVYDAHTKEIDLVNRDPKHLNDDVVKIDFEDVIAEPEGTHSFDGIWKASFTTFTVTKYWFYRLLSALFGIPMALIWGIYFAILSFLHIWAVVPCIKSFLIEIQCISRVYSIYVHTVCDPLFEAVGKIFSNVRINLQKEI
UniProt Q15363, residues 21-201: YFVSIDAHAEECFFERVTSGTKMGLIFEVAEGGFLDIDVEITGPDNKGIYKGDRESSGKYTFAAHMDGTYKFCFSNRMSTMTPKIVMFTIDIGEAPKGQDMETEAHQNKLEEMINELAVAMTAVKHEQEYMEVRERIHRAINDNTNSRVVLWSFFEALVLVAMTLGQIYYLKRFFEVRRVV
UniProt P51570: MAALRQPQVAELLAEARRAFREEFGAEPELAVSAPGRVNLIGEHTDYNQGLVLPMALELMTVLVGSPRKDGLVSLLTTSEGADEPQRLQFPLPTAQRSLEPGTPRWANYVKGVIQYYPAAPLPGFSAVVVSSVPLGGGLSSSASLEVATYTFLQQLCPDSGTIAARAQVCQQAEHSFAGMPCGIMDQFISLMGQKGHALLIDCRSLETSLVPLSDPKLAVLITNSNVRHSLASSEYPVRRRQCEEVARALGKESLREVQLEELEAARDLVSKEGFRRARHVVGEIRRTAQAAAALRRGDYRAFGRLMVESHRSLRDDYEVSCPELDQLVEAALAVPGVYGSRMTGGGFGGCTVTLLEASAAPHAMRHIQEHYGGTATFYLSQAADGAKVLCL
UniProt P31946: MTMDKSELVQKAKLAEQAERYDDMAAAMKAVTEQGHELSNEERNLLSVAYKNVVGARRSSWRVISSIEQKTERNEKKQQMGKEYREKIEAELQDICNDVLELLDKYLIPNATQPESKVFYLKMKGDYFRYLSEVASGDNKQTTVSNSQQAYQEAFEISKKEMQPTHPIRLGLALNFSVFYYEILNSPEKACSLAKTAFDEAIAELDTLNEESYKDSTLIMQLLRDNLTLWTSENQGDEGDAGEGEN
UniProt P62258: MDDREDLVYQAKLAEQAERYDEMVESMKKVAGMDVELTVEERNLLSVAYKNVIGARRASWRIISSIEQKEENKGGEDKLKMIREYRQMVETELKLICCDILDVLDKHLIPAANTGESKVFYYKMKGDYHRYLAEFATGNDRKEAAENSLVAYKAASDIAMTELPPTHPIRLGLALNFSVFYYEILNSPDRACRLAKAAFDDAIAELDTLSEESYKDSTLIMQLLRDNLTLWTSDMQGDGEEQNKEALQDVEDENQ

Molecular target: human glucagon receptor (GCGR), C-terminal Flag-tagged (human) (UniProt P47871)
Assay: co-IP; HA-tagged interactor and Flag-tagged GCGR co-transfected into CHO cells; anti-Flag Co-IP (M2 affinity gel), anti-HA Western blot; cells transfected with the HA-tagged interactor alone as control

binding | Molecule
binds | HA-tagged CAV1 (from UniProt Q03135 1-178)
binds | HA-tagged TMED2 (from UniProt Q15363 21-201)
no binding | HA-tagged TMED10 (protein, UniProt P49755 32-219) ISFHLPINSRKCLREEIHKDLLVTGAYEISDQSGGAGGLRSHLKITDSAGHILYSKEDATKGKFAFTTEDYDMFEVCFESKGTGRIPDQLVILDMKHGVEAKNYEEIAKVEKLKPLEVELRRLEDLSESIVNDFAYMKKREEEMRDTNESTNTRVLYFSIFSMFCLIGLATWQVFYLRRFFKAKKLIE

Continued, molecule first:

Molecule | binding
HA-tagged GALK1 (from UniProt P51570 1-392) | binds
HA-tagged LDLR (from UniProt P01130 22-860) (receptor) | binds
HA-tagged YWHAB (14-3-3 protein beta) (from UniProt P31946 1-246) | binds
HA-tagged YWHAE (from UniProt P62258 1-255) | no binding
